Among all 310,000 compounds or so, about 14,000 (4.5%) showed an effect of 50% or more. The effect is printed as a negative number. The list shows a part of the results.
The compounds below were run against human ether-à-go-go-related gene (hERG) potassium channel (human, UniProt Q12809) (assay: primary screen, population patch clamp on CHO cells stably expressing hERG).
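Further: peak tail current of the secondary pulse compared with the same well before compound.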

Sequence of human ether-à-go-go-related gene (hERG) potassium channel (Q12809 whole entry, looked up): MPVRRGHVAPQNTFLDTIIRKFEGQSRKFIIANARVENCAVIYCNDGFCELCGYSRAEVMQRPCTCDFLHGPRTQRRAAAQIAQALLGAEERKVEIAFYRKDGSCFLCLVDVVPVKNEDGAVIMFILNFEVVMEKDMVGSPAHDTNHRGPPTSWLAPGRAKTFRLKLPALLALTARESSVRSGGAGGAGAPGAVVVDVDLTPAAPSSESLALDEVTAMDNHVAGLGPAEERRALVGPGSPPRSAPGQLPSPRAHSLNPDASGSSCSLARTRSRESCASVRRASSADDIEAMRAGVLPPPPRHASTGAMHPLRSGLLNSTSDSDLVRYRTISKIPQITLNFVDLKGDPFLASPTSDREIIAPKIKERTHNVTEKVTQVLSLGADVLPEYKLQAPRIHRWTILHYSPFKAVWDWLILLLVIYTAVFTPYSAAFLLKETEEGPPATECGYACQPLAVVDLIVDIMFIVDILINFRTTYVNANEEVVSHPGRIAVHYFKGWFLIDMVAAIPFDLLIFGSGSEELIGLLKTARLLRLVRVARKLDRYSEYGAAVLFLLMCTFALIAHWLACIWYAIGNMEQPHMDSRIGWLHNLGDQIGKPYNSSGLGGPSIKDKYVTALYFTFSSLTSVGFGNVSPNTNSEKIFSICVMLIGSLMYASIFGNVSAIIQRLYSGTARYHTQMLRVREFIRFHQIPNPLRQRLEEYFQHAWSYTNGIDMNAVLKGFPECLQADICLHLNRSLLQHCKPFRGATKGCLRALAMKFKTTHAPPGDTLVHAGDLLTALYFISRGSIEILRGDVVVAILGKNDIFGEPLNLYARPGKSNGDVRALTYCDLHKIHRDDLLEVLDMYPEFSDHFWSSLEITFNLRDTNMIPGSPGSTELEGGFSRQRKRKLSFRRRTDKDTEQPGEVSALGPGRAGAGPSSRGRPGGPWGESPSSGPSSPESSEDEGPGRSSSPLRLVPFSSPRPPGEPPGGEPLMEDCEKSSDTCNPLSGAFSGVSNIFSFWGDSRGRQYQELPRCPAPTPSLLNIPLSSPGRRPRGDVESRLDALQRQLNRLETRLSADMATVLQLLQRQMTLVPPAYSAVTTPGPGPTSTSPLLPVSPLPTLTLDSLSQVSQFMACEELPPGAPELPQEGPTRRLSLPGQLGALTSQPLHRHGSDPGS

Compound	hERG current change (%, negative = inhibition) at 10uM
COc1ccccc1-n1cnnc1SCC(=O)c1cc(C)n(Cc2cccs2)c1C	-27.8%
CCn1cc(C(=O)Nc2ccc(C)cc2[N+](=O)[O-])c(C)n1	5.23%
Cc1ccc(-c2cc(C(=O)Nc3ccc(S(=O)(=O)Nc4cc(C)on4)cc3)c3ccccc3n2)c(C)c1	-0.583%
COc1cc(S(=O)(=O)Nc2ccccc2C)ccc1Cl	6.23%
Cc1cccc(C)c1NS(=O)(=O)c1c(C)[nH]c(=O)[nH]c1=O	-14.2%
CCOC(=O)Cc1csc(NC(=O)CSc2nnc(-c3cccnc3)n2Cc2ccco2)n1	-30.5%
CC1(C)CC(=O)C2=C(C1)N(c1ccccc1)C(=O)C2(O)C(F)(F)F (stereo not shown)	1.69%
Cc1ccc(S(=O)(=O)N2C(=O)C(c3ccccc3)SC2=Nc2ccccc2)cc1 (stereo not shown)	16.9%
CCCNC(=O)COC(=O)c1cc(SC)ccc1Cl	-10.8%
Cc1cccc(-n2c(SCC(=O)Nc3nonc3C)nnc2-c2ccoc2C)c1	-78.9%
CCCc1cc(=O)[nH]c2nnc(SCC(=O)Nc3ccc4c(c3)OCCO4)n12	11.6%
Cl.c1coc(CNc2ncnc3ccccc23)c1	2.88%
CCN(CC)c1ccc(C(=O)N/N=C(\C)c2ccc(O)cc2)cc1	16.6%
CCOC(=O)C1(Cc2ccccc2C)CCCN(C(=O)c2ccc(CSC)o2)C1 (stereo not shown)	-39.1%
O=C(O)COc1ccc(Br)cc1/C=N/O	7.4%
CC(C)=C(NC(=O)c1ccccc1)C(=O)NCCc1nc2ccccc2[nH]1	9.91%
COc1ccc(CCN(Cc2cccs2)S(=O)(=O)c2ccc(C(=O)O)cc2)cc1OC	32%
CCCCCc1c(O)nc(SCCN(C)C)[nH]c1=O.Cl	11.4%
CCOc1ccc(C(=O)N2CCN(Cc3ccccc3)CC2)cc1	-69.3%
CCSc1ccc(-c2ccco2)nn1	7.31%
Cc1c(C)c2ccc(OC(C)C(=O)NCc3ccccn3)cc2oc1=O (stereo not shown)	15.3%
O=C1N=C(N2CCCCC2)S/C1=C/C1=Cc2ccccc2OC1	-15.4%

Compound	hERG current change (%, negative = inhibition) at 10uM
COC(=O)C[C@H]1c2cc(F)ccc2S(=O)(=O)N1c1ccccc1	8.82%
O=C(CCC1CCCC1)Nc1ccc(Br)cn1	1.29%
O=P(O)(CP(=O)(c1ccccc1)c1ccccc1)c1ccccc1O	18.7%
Cc1cc(C)nc(NC(=O)CSc2nn(C)c(=S)s2)n1	-0.37%
O=C(NCC(c1ccco1)N1CCN(c2ccc(F)cc2)CC1)C(=O)NC1CC1 (stereo not shown)	-4.67%
COc1ccc2c(c1)CCC/C2=N\NC(=O)c1ccoc1C	1.44%
O=C(CSc1nc(O)cc(=O)[nH]1)N1CCOCC1	3.8%
C=CCC1(CN2CCCCCC2=O)C(=O)NC(=O)NC1=O	10.3%
CCCCN(C(=O)c1ccc([N+](=O)[O-])o1)c1c(N)n(CCCC)c(=O)[nH]c1=O	2.83%
CCc1ccc(NC(=O)CSc2nc(CSc3ccc(C)cc3)cc(=O)[nH]2)cc1	11.3%
COc1cc(/C=C(\C#N)C(=O)Nc2cccnc2)ccc1OC(C)C	0.825%
O=C(NN1C(=O)c2ccc(-c3ccc4c(c3)C(=O)N(NC(=O)c3cccnc3)C4=O)cc2C1=O)c1cccnc1	6.56%
CC(C)(C)c1cc(C(=O)N/N=C/c2ccc(O)cc2)n(-c2ccccc2)n1	-14.9%
COc1cc2nc(SCC(=O)c3ccc(Br)cc3)n3nc(C)nc3c2cc1OC	-17.7%
Cc1ccc(NC2SC(=O)N(Cc3cccc(C(=O)O)c3)C2=O)cc1 (stereo not shown)	15.2%
Cc1csc(NC(=O)NC2(C(F)(F)F)Oc3ccccc3O2)n1	5.26%
O=C(NCC(=O)N1CCN(c2ccccc2)CC1)c1ccccc1	1.32%
Cc1cc(=O)oc2cc(NC(=O)c3c(Cl)cnn3C)ccc12	6.18%
N/C(=N\OC(=O)C12CC3CC(CC(C3)C1)C2)c1ccncc1	5.05%
O=C(COC(=O)c1ccc([N+](=O)[O-])o1)NC1CCS(=O)(=O)C1 (stereo not shown)	11.4%
CC12CCC(C(=O)N(c3ccc(Cl)cc3)C1=O)C2(C)C (stereo not shown)	4.57%
COC(=O)C1CN(C(=O)COc2cccc(C)c2C)c2ccccc2O1 (stereo not shown)	-6.63%

Compound	hERG current change (%, negative = inhibition) at 10uM
COCCNC(=O)CN1CCC(n2c(C)nc3cc(C(F)(F)F)ccc32)CC1	-25.6%
CCOC(=O)CC1C(=O)NC2CCCCC2N1C(=O)Nc1ccc(Cl)cc1 (stereo not shown)	-10.1%
COc1cc(C#Cc2ccc3cc(C(C)(C)O)oc(=O)c3c2)cc(OC)c1	27.1%
CC(C)CN(C(=O)COC(=O)c1nc(Cl)ccc1Cl)c1c(N)n(Cc2ccccc2)c(=O)[nH]c1=O	19.5%
COc1cccc(C(=O)C2CCCN(Cc3ccc4nonc4c3)C2)c1 (stereo not shown)	-48.5%
CC1=CC(c2ccccc2)=Nc2ccc(C)cc2N1	-14.4%
Oc1cccc2c3c(oc12)CCCC3	13.7%
COc1ccccc1N(Cc1ccccc1)S(=O)(=O)c1cccc(C(=O)O)c1	10.9%
O=C(NCCC1=CCCCC1)c1ccc(Cl)c([N+](=O)[O-])c1	-23.3%
O=C(NC(CSCc1ccccc1)C(=O)N/N=C/c1ccc(O)cc1O)c1ccc([N+](=O)[O-])cc1 (stereo not shown)	-22.4%
CCOc1ccc(NC2=C(Cl)C(=O)N(Cc3ccccc3)C2=O)cc1	-0.258%
Cc1c(OC(C)C(=O)NCC2CCC(C(=O)O)CC2)ccc2c1oc(=O)c1ccccc12 (stereo not shown)	0.908%
O=c1[nH]c(Nc2ccc(F)cc2)cc2ccccc12	0.412%
CCn1nc(C)cc1C(=O)N1CCCC(C(=O)c2cccc(OC)c2)C1 (stereo not shown)	1.8%
Nc1nc(F)cc(N2CCCCCC2)n1	12.5%
COc1ccc(C(=O)Nc2oc(-c3ccccc3)c(-c3ccccc3)c2C#N)cc1	-3.15%
CCOc1cc(C(=S)N2CCOCC2)ccc1OC(=O)c1cccc(C)c1	-42%
CCN1C/C(=C/c2ccc(OC)c(O)c2)C(=O)/C(=C/c2ccc(OC)c(O)c2)C1	9.33%
CSc1nnc(CCNC(=O)OC(C)(C)C)o1	10.8%
Cc1cccc(OCC(=O)Nc2ccncc2)c1	-0.803%
CCOC(=O)c1ccc(NC(=S)N(CCN(C)C)C(C)c2ccncc2)cc1 (stereo not shown)	-21%
O=C(O)C(=O)O.O=[N+]([O-])c1cccc(OCCN2CCC(Cc3ccccc3)CC2)c1	-71.1%

Compound	hERG current change (%, negative = inhibition) at 10uM
CCOC(=O)c1cc2c(C)n(-c3ccc(OCC)cc3)c(C)c2cc(C(=O)OCC)c1=O	0.773%
O=C(NCc1cccnc1)c1ccc(-c2cc3ccccc3oc2=O)cc1	4.65%
Cc1c(OC(C)C(=O)NCC(O)c2ccccc2)ccc2c3c(c(=O)oc12)CCC3 (stereo not shown)	-13.3%
Cn1cnnc1SCC(=O)c1cccc([N+](=O)[O-])c1	-2.06%
Cc1ccccc1Sc1ncnc2onc(C)c12	0.173%
COc1ccc(Nc2cc(C(=O)NCCCOC(C)C)c3ccccc3n2)c(OC)c1	12.2%
O=C(N[C@@H](Cc1ccccc1)C(=O)NC1CCCCCC1)c1ccco1	33.3%
Cc1cc(C)nc(NC(=O)C(c2ccccc2)c2ccccc2)c1	3.55%
CCC(O)(CC)C(=O)N(Nc1ccc(C)cc1)c1ccc(C)cc1	12.8%
O=C(CCn1c(=O)c2ccccc2n(Cc2cccc([N+](=O)[O-])c2)c1=O)N1CCc2ccccc2C1	-38.2%
CCOc1ccc(NC(=O)C(=O)NCc2ccncc2)cc1	-7.08%
C=CCn1c(N)cc(=O)nc1SC(CC)C(=O)Nc1ccc(C(C)=O)cc1 (stereo not shown)	11.2%
Cc1ccccc1N1CC(C(=O)Nc2nnc(SCCN3CCOCC3)s2)CC1=O (stereo not shown)	22.1%
O=C(CCN1C(=O)COc2ccccc21)NCCN1CCN(c2ccccc2F)CC1	-33.5%
COC(=O)CCN(C(C)=O)c1ccc(N)cc1	17.8%
CCN(CC)C1CCN(Cc2c(C(=O)N3CCCCCCC3)nc3ccc(Cl)cn23)C1 (stereo not shown)	-1.9%
CCOC(=O)C1CCCN(CCC(=O)Nc2ccc(C)c(C)c2)C1.Cl (stereo not shown)	-44.8%
CC(=O)NS(=O)(=O)c1ccc(NC(=O)c2ccc(S(=O)(=O)N3CCCC3)cc2)cc1	-0.257%
Cc1cc(C)nc(SCC(=O)Nc2ccc3c(c2)OCO3)n1	5.56%
CCOc1ccccc1C(=O)NCC(=O)OCCCOC(=O)CNC(=O)c1ccccc1OCC	-24.7%
CCOC(=O)CSc1nc(-c2cccs2)nc2c1c(=O)n(C)c(=O)n2C	22.2%
O=C(N/N=C/c1cc([N+](=O)[O-])ccc1O)C1CC1	9.47%

Source: publication PMC4336329 (PLoS ONE, 2015)
